Source: article PMC11876325
These are yes or no findings as the source states them, for the method shown. Some entries that bind do so weakly or less than the wild type.

Protein sequences, listed by entry. Tags and fused reporters are not part of them.
UniProt P25454: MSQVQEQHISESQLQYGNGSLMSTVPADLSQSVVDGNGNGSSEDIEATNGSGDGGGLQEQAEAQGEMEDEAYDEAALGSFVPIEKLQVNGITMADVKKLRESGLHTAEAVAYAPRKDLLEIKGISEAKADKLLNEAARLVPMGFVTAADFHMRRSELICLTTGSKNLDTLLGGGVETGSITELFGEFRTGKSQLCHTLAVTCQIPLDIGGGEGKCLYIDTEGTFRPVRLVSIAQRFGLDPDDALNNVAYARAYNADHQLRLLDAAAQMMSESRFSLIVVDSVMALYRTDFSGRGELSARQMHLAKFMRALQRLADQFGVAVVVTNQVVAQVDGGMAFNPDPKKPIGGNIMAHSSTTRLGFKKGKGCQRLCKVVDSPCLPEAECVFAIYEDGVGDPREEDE

T1: Rad55 (pGBD Rad55) (S. cerevisiae) (UniProt P38953)
T1 sequence: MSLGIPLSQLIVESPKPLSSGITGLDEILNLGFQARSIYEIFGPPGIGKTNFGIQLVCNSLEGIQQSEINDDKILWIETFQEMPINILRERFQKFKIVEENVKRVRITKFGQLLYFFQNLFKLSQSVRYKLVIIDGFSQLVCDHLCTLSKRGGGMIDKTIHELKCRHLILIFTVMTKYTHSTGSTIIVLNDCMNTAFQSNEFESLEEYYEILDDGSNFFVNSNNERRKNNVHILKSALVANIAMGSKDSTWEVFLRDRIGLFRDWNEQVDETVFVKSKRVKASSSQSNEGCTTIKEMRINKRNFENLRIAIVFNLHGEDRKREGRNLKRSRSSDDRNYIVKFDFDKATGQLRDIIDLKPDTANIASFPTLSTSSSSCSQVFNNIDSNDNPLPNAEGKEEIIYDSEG

T2: Rad57 (pGBD Rad57) (S. cerevisiae) (UniProt P25301)
T2 sequence: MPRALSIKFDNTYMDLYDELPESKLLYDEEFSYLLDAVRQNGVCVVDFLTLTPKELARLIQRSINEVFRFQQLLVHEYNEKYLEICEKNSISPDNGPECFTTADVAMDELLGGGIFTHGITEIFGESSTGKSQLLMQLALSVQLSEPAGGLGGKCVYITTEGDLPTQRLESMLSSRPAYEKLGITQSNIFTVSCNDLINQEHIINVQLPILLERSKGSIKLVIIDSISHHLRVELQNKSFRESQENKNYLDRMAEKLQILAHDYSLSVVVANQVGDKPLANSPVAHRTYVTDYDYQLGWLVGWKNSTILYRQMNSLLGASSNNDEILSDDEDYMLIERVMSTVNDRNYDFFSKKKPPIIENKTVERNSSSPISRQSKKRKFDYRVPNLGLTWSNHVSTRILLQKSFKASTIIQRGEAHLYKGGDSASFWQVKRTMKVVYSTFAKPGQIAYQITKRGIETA

T3: Psy3 (pGBD Psy3) (S. cerevisiae) (UniProt Q12318)
T3 sequence: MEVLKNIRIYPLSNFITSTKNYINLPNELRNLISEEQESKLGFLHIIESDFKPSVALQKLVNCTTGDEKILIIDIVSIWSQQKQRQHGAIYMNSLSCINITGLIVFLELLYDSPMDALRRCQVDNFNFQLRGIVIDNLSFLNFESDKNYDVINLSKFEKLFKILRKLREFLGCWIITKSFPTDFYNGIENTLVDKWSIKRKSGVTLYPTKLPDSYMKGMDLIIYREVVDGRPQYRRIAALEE

B1: Orc5 (pGAD ORC5) (protein, UniProt P50874 1-479)
chain: MNVTTPEVAFREYQTNCLASYISADPDITPSNLILQGYSGTGKTYTLKKYFNANPNLHAVWLEPVELVSWKPLLQAIARTVQYKLKTLYPNIPTTDYDPLQVEEPFLLVKTLHNIFVQYESLQEKTCLFLILDGFDSLQDLDAALFNKYIKLNELLPKDSKINIKFIYTMLETSFLQRYSTHCIPTVMFPRYNVDEVSTILVMSRCGELMEDSCLRKRIIEEQITDCTDDQFQNVAANFIHLIVQAFHSYTGNDIFALNDLIDFKWPKYVSRITKENIFEPLALYKSAIKLFLSTDDNLSENGQGESAITTNRDDLENSQTYDLSIISKYLLIASYICSYLEPRYDASIFSRKTRIIQGRAAYGRRKKKEVNPRYLQPSLFAIERLLAIFQAIFPIQGKAESGSLSALREESLMKANIEVFQNLSELHTLKLIATTMNKNIDYLSPKVRWKVNVPWEIIKEISESVHFNISDYFSDIHE
B2: Orc4 (pGAD ORC4) (protein, UniProt P54791 1-529)
chain: MTISEARLSPQVNLLPIKRHSNEEVEETAAILKKRTIDNEKCKDSDPGFGSLQRRLLQQLYGTLPTDEKIIFTYLQDCQQEIDRIIKQSIIQKESHSVILVGPRQSYKTYLLDYELSLLQQSYKEQFITIRLNGFIHSEQTAINGIATQLEQQLQKIHGSEEKIDDTSLETISSGSLTEVFEKILLLLDSTTKTRNEDSGEVDRESITKITVVFIFDEIDTFAGPVRQTLLYNLFDMVEHSRVPVCIFGCTTKLNILEYLEKRVKSRFSQRVIYMPQIQNLDDMVDAVRNLLTVRSEISPWVSQWNETLEKELSDPRSNLNRHIRMNFETFRSLPTLKNSIIPLVATSKNFGSLCTAIKSCSFLDIYNKNQLSNNLTGRLQSLSDLELAILISAARVALRAKDGSFNFNLAYAEYEKMIKAINSRIPTVAPTTNVGTGQSTFSIDNTIKLWLKKDVKNVWENLVQLDFFTEKSAVGLRDNATAAFYASNYQFQGTMIPFDLRSYQMQIILQELRRIIPKSNMYYSWTQL
B3: Orc1 (pGAD ORC1) (protein, UniProt P54784 1-914)
chain: MAKTLKDLQGWEIITTDEQGNIIDGGQKRLRRRGAKTEHYLKRSSDGIKLGRGDSVVMHNEAAGTYSVYMIQELRLNTLNNVVELWALTYLRWFEVNPLAHYRQFNPDANILNRPLNYYNKLFSETANKNELYLTAELAELQLFNFIRVANVMDGSKWEVLKGNVDPERDFTVRYICEPTGEKFVDINIEDVKAYIKKVEPREAQEYLKDLTLPSKKKEIKRGPQKKDKATQTAQISDAETRATDITDNEDGNEDESSDYESPSDIDVSEDMDSGEISADELEEEEDEEEDEDEEEKEARHTNSPRKRGRKIKLGKDDIDASVQPPPKKRGRKPKDPSKPRQMLLISSCRANNTPVIRKFTKKNVARAKKKYTPFSKRFKSIAAIPDLTSLPEFYGNSSELMASRFENKLKTTQKHQIVETIFSKVKKQLNSSYVKEEILKSANFQDYLPARENEFASIYLSAYSAIESDSATTIYVAGTPGVGKTLTVREVVKELLSSSAQREIPDFLYVEINGLKMVKPTDCYETLWNKVSGERLTWAASMESLEFYFKRVPKNKKKTIVVLLDELDAMVTKSQDIMYNFFNWTTYENAKLIVIAVANTMDLPERQLGNKITSRIGFTRIMFTGYTHEELKNIIDLRLKGLNDSFFYVDTKTGNAILIDAAGNDTTVKQTLPEDVRKVRLRMSADAIEIASRKVASVSGDARRALKVCKRAAEIAEKHYMAKHGYGYDGKTVIEDENEEQIYDDEDKDLIESNKAKDDNDDDDDNDGVQTVHITHVMKALNETLNSHVITFMTRLSFTAKLFIYALLNLMKKNGSQEQELGDIVDEIKLLIEVNGSNKFVMEIAKTLFQQGSDNISEQLRIISWDFVLNQLLDAGILFKQTMKNDRICCVKLNISVEEAKRAMNEDETLRNL
B4: Mcm5 (pGAD Mcm5) (protein, UniProt P29496 1-775)
chain: MSFDRPEIYSAPVLQGESPNDDDNTEIIKSFKNFILEFRLDSQFIYRDQLRNNILVKNYSLTVNMEHLIGYNEDIYKKLSDEPSDIIPLFETAITQVAKRISILSRAQSANNNDKDPENTSMDTDSLLLNSLPTFQLILNSNANQIPLRDLDSEHVSKIVRLSGIIISTSVLSSRATYLSIMCRNCRHTTSITINNFNSITGNTVSLPRSCLSTIESESSMANESNIGDESTKKNCGPDPYIIIHESSKFIDQQFLKLQEIPELVPVGEMPRNLTMTCDRYLTNKVIPGTRVTIVGIYSIYNSKNGAGSGRSGGGNGGSGVAIRTPYIKILGIQSDVETSSIWNSVTMFTEEEEEEFLQLSRNPKLYEILTNSIAPSIFGNEDIKKAIVCLLMGGSKKILPDGMRLRGDINVLLLGDPGTAKSQLLKFVEKVSPIAVYTSGKGSSAAGLTASVQRDPMTREFYLEGGAMVLADGGVVCIDEFDKMRDEDRVAIHEAMEQQTISIAKAGITTVLNSRTSVLAAANPIYGRYDDLKSPGDNIDFQTTILSRFDMIFIVKDDHNEERDISIANHVINIHTGNANAMQNQQEENGSEISIEKMKRYITYCRLKCAPRLSPQAAEKLSSNFVTIRKQLLINELESTERSSIPITIRQLEAIIRITESLAKLELSPIAQERHVDEAIRLFQASTMDAASQDPIGGLNQASGTSLSEIRRFEQELKRRLPIGWSTSYQTLRREFVDTHRFSQLALDKALYALEKHETIQLRHQGQNIYRSGV
B5: Orc2 (pGAD ORC2) (protein, UniProt P32833 1-620)
chain: MLNGEDFVEHNDILSSPAKSRNVTPKRVDPHGERQLRRIHSSKKNLLERISLVGNERKNTSPDPALKPKTPSKAPRKRGRPRKIQEELTDRIKKDEKDTISSKKKRKLDKDTSGNVNEESKTSNNKQVMEKTGIKEKREREKIQVATTTYEDNVTPQTDDNFVSNSPEPPEPATPSKKSLTTNHDFTSPLKQIIMNNLKEYKDSTSPGKLTLSRNFTPTPVPKNKKLYQTSETKSASSFLDTFEGYFDQRKIVRTNAKSRHTMSMAPDVTREEFSLVSNFFNENFQKRPRQKLFEIQKKMFPQYWFELTQGFSLLFYGVGSKRNFLEEFAIDYLSPKIAYSQLAYENELQQNKPVNSIPCLILNGYNPSCNYRDVFKEITDLLVPAELTRSETKYWGNHVILQIQKMIDFYKNQPLDIKLILVVHNLDGPSIRKNTFQTMLSFLSVIRQIAIVASTDHIYAPLLWDNMKAQNYNFVFHDISNFEPSTVESTFQDVMKMGKSDTSSGAEGAKYVLQSLTVNSKKMYKLLIETQMQNMGNLSANTGPKRGTQRTGVELKLFNHLCAADFIASNEIALRSMLREFIEHKMANITKNNSGMEIIWVPYTYAELEKLLKTVLNTL
B6: Orc3 (pGAD ORC3) (protein, UniProt P54790 1-616)
chain: MSDLNQSKKMNVSEFADAQRSHYTVYPSLPQSNKNDKHIPFVKLLSGKESEVNVEKRWELYHQLHSHFHDQVDHIIDNIEADLKAEISDLLYSETTQKRRCFNTIFLLGSDSTTKIELKDESSRYNVLIELTPKESPNVRMMLRRSMYKLYSAADAEEHPTIKYEDINDEDGDFTEQNNDVSYDLSLVENFKRLFGKDLAMVFNFKDVDSINFNTLDNFIILLKSAFKYDHVKISLIFNINTNLSNIEKNLRQSTIRLLKRNYHKLDVSSNKGFKYGNQIFQSFLDTVDGKLNLSDRFVEFILSKMANNTNHNLQLLTKMLDYSLMSYFFQNAFSVFIDPVNVDFLNDDYLKILSRCPTFMFFVEGLIKQHAPADEILSLLTNKNRGLEEFFVEFLVRENPINGHAKFVARFLEEELNITNFNLIELYHNLLIGKLDSYLDRWSACKEYKDRLHFEPIDTIFQELFTLDNRSGLLTQSIFPSYKSNIEDNLLSWEQVLPSLDKENYDTLSGDLDKIMAPVLGQLFKLYREANMTINIYDFYIAFRETLPKEEILNFIRKDPSNTKLLELAETPDAFDKVALILFMQAIFAFENMGLIKFQSTKSYDLVEKCVWRGI

Molecular target: T1, Rad55 (pGBD Rad55) (S. cerevisiae)
Test: two-hybrid; GAL4 DNA-binding domain (pGBD) and GAL4 activation domain (pGAD) fusions co-transformed into PJ69-4α (also its rad51∆, rad55∆, csm2∆, shu1∆ and shu2∆ derivatives); growth on SC-L-W-H, 2-3 days, 30 °C

Row | binding | Binder
1 | no binding | B1
2 | no binding | B2
3 | no binding | B3
4 | no binding | B5
5 | no binding | B6

Row | Binder | binding
6 | B4 | no binding

Molecular target: T2, Rad57 (pGBD Rad57) (S. cerevisiae)
Test: as above

Row | binding | Binder
7 | no binding | B1
8 | no binding | B2
9 | no binding | B3
10 | no binding | B5
11 | no binding | B6

Row | Binder | binding
12 | B4 | no binding

Molecular target: T3, Psy3 (pGBD Psy3) (S. cerevisiae)
Test: as above

Row | binding | Binder
13 | binds | B1
14 | binds | B2
15 | binds | B3
16 | binds | B5
17 | binds | B6

Row | Binder | binding
18 | B4 | binds

Molecular target: Rad51 (two-hybrid fusion) (S. cerevisiae) (UniProt P25454)
Test: as above

Row | binding | Binder
19 | no binding | B2
20 | no binding | B5
21 | no binding | B6

Row | Binder | binding
22 | B4 | binds weakly
